Variants at the background level are over-represented here.
B1: tRNA (parent)
chain: CUCUCGGUAGCCAAGUUGGUUUAAGGCGCAAGACUUUAAUUUAUCACUACGAAAUCUUGAGAUCGGGCGUUCGACUCGCCCCCGGGAGAUUUUUUCCUCGAGCAA

Variants of: B1
Assay: nonsense suppression (GFP-seq) (ratio to wild type); higher = more function; SUP4oc tRNA, yeast GFP reporter sort-seq
Procedure, shortened: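 To measure nonsense suppression, tRNA variants from a library carrying ~3% random mutations were integrated into the yeast genome alongside RFP and a GFP ochre reporter under galactose control. Growth took place in raffinose/galactose medium supplemented with 80 mg/L adenine, followed by sorting into GFP/RFP bins and Illumina sequencing of each bin (phred ≥30). For each variant with ≥100 reads and ≥30 cells, the bin median GFP/RFP values were weighted by its estimated cell share per bin and referenced to the unmutated parent tRNA.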

Nonsense suppression, ≤ 0.026:
CUCUCGAUAGCCAAGUUGGUUUAAGGCGCAAGACUUUAAUUUAUCACUACGAAAUCUUGAGAUCGAGCGUUCGACUCGCCCCCGGGAGAUUUUUUCCUCGAGCAA [G7A G66A]
CUCUCGAUAGCCACGUUGGUUAAAGGCGUGAGAAUUUAAUUUAUCACUACGAAAUCUUGAGAUCGGGCGUUCGACUCGCCCCCGGGAGAUUUUUUCCUCGAGCAA [G7A A14C U22A C29U A30G C34A]
CUCUCGAUAGCCAAGUUGGUUUAAGGUGCAAGACUUUAAUUUAUCACUACGAAAUCUUGAGAUCGGACGUUCGACUCGCCCCCGGGAGAUUUUUUCCUCGAGCAA [G7A C27U G67A]
CUCUCGAUAGCCUAGUUGGUUUAAGACGCAAGACUUUAAUUUAUCACUACGAAAUCUUGAGAUCGGGCGUUCGACCCGCCCCCGGGAGAUUUUUUCCUCGAGCAA [G7A A13U G26A U76C]
CUCUCGAUAGUCAAGUUGGUUUAAGGCGCAAGACAUUAAUUUAUCACUACGAAAUCUUGAGAUCGGGCGUUCGACUCACCCCCGGGAGAUUUUUUCCUCGAGCAA [G7A C11U U35A G78A]
CUCUCGAUAGUCAAGUUGGUUUAAGGCGCAAGACAUUAAUUUAUCACUACGAACUCUUGAGAUUGGGCGUUCGACUCGCCCCGGGGAGAUUUUUUCCUCGAGCAA [G7A C11U U35A A54C C64U C83G]
CUCUCGAUAGCCAAGUUUGUUUAAGGCGCAAGACUUUAAUUUAUCACUACGAAAUCUUGAGAUCGGGCGUUCGACUCGCCCCCGGGAGAUUUUUUCCUCGAGCAA [G7A G18U]
CUCUCGAUAGCCAAGUUGGUUUAAGGCGCAAGACUUUAAUUUAUCACUACGAAAUCUUGAGUUCGGGCGUUCCACUCGCCCCCGGGUGAUUUUUUCCUCGAGCAA [G7A A62U G73C A87U]
CUCUCGAUAGCCAAGUUGGUUUAAGACGCAAGACUUUAAUUUAUCACUACGAAAUCUUGAGAUCGGGCGUUCGACUCGCCCCCGGGAGAUUUUUUCCUCGAGCAA [G7A G26A]
CUCUCGAUAGCCAAGUUGGUUUAAGUCGCAAGACUUUAAUUUAUCACUACGAAAUCUUGAGAUCGGGCGUUCGACUCGCCCCCGGGAGAUUUUUUCCUCGAGCAA [G7A G26U]
CUCUCGAUAGCCAAGUUGGUUUAAGGCGCAAGAUUUUAAUUUAUCACUACGAAAUCUUGAGAUCGGGCGUUCGACUCGCCGCCGGGAGAUUUUUUCCUCGAGCAA [G7A C34U C81G]
CUCUCGAUAGCCAAGUUGGUUUCAGGCGCAAGACUUUAAUUUAUCACUACGAAAUGUUGAGAUCGGGCGUUCGACUCGCCCCCGGGAGAUUUUUUCCUCGAGCAA [G7A A23C C56G]
CUCUCGAUAGCCAAGUUGGUUUAAGGCGCACGACUUUAAUUUAUCACUACGAAAUCCUGAGAUCGGGCUUUCGACUCGCCCCAGGGAGAUUUUUUCCUCGAGCAA [G7A A31C U57C G69U C83A]
CUCUCGAUAGCCAAGUUGGUUUAAGGCGCAAGACUUUAAUUUAUCACUACGAACUCUUGAGAUCGGGCGUUCGACUCGCCCCCGGGAGAUUUUUUCCUCGAGCAA [G7A A54C]
CUCUCGAUAGCCAAGUUGGUUUAUGGCGCAAGACUUUAAUUUAUCACUACGAAAUCUUGAGAUCGGGCGUUCGACUCGCCCCCGGGGGAUUUUUUCCUCGAGCAA [G7A A24U A87G]
CUCUCGAUAGCCAAGUUGGUUUAAGGCGCAAGACUUUAAUUUAUCACUACGAAAUCUUAAGAUCGGGCGUUCGACUCGCCCCCGGGAGAUUUUUUCCUCGAGCAA [G7A G59A]
CUCUCGAUAGCCAAGUUGGUUUUAGGCGCAAGACUUUAAUUUAUCACUACGAAAUCUUGAGGUCGGGCGUUCGACUCGCCCCCGGGAGAUUUUUUCCUCGAGCAA [G7A A23U A62G]
CUCUCGAUAGACAAGUUGGUUUAAGGCGCAAGACUUUAAUUUAUCACUACGAAAACUUGAGAUCGGGCGUUCGGCUCGCCCCCGGGAGAUUUUUUCCUCGAGCAA [G7A C11A U55A A74G]
CUCUCGAUAGCCAAGUUGGUUUAAGGCGUAAGACUUUAAUUUAUCACUACGAAAUCUUGAGAUCUGGCGUUAGACUCGCCCCCGGGAGAUUUUUUCCUCGAGCAA [G7A C29U G65U C72A]
CUCUCGAUAGCCAAGUUGGUUUAAGGCGCAAGACUUUAAUUUAUCACUACGAAAUCUUAAGAUCGGGCGUUCGACCCACCCACGGGAUAUUUUUUCCUCGAGCAA [G7A G59A U76C G78A C82A G88U]
CUCUCGAUAGCCAAGUUGGUUUAAGGCGCAAGACUUUAAUUUAUCACUACGAAAUAUUGAGAUCGGGCGUUCGACUCGCCCCCGAGAUAUUUUUUCCUCGAGCAA [G7A C56A G85A G88U]
CUCUCGAUAGCCAAGUUGCUUUAAGGCGCAAGACUUUAAUUUAUCACUACGAAAUCUUGUGAUCGGGCGUUCGACUCGCCCCCGGGAGAUUUUUUCCUCGAGCAA [G7A G19C A60U]
CUCUCGAUAGCCAAGUUGGUUUAAGGCGCAAAAUUUUAAUUUAUCACUACGAAAUCUUGAGAUAGGGGGUUCGACUCGCCCCCGGGAGAUUUUUUCCUCGAGCAA [G7A G32A C34U C64A C68G]
CUCUCGAUAGCCAAGUUGGUUUAAGGCGCGAGACUUUAAUUUAUCACUACGAAAUCUUGCGAUCGGGCGUUCGACUCGCUCCCGGGAGAUUUUUUCCUCGAGCAA [G7A A30G A60C C80U]
CUCUCGAUAGGCAAGUUGGUUUAAGGCGCAAGACUUUAAUUUAUCACUACGAAAUCUUGAGAUCGGGCGUUCGACUCGCCCCCGGGAGAUUUUUUCCUCGAGCAA [G7A C11G]
CUCUCGAUAGUCAAGUUGGUUUAAGGCGCAAGACUUUAAUUUAUCACUACGAAAUCUUGAGAUCGGGCGUUCGACUCGCCCCCGGGAGAUUUUUUCCUCGAGCAA [G7A C11U]
CUCUCGAUAGCCAAGUUGGUUUAAGGCGCAACACUUUAAUUUAUCACUACGAAAUCUUGAGAUCGGGCGUUCGACUCGACCCCGGGAGAUUUUUUCCUCGAGCAA [G7A G32C C79A]
